Consider nine molecules from publication PMC8970588.

Protein sequences, listed by entry. Tags and fused reporters are not part of them. Lines headed by an entry give the natural chain unless they say otherwise; changes in a name come on top. Chains listed by the source or under a name are the forms on record and can include a tag or linker. Residues count along the entry.
UniProt P25655: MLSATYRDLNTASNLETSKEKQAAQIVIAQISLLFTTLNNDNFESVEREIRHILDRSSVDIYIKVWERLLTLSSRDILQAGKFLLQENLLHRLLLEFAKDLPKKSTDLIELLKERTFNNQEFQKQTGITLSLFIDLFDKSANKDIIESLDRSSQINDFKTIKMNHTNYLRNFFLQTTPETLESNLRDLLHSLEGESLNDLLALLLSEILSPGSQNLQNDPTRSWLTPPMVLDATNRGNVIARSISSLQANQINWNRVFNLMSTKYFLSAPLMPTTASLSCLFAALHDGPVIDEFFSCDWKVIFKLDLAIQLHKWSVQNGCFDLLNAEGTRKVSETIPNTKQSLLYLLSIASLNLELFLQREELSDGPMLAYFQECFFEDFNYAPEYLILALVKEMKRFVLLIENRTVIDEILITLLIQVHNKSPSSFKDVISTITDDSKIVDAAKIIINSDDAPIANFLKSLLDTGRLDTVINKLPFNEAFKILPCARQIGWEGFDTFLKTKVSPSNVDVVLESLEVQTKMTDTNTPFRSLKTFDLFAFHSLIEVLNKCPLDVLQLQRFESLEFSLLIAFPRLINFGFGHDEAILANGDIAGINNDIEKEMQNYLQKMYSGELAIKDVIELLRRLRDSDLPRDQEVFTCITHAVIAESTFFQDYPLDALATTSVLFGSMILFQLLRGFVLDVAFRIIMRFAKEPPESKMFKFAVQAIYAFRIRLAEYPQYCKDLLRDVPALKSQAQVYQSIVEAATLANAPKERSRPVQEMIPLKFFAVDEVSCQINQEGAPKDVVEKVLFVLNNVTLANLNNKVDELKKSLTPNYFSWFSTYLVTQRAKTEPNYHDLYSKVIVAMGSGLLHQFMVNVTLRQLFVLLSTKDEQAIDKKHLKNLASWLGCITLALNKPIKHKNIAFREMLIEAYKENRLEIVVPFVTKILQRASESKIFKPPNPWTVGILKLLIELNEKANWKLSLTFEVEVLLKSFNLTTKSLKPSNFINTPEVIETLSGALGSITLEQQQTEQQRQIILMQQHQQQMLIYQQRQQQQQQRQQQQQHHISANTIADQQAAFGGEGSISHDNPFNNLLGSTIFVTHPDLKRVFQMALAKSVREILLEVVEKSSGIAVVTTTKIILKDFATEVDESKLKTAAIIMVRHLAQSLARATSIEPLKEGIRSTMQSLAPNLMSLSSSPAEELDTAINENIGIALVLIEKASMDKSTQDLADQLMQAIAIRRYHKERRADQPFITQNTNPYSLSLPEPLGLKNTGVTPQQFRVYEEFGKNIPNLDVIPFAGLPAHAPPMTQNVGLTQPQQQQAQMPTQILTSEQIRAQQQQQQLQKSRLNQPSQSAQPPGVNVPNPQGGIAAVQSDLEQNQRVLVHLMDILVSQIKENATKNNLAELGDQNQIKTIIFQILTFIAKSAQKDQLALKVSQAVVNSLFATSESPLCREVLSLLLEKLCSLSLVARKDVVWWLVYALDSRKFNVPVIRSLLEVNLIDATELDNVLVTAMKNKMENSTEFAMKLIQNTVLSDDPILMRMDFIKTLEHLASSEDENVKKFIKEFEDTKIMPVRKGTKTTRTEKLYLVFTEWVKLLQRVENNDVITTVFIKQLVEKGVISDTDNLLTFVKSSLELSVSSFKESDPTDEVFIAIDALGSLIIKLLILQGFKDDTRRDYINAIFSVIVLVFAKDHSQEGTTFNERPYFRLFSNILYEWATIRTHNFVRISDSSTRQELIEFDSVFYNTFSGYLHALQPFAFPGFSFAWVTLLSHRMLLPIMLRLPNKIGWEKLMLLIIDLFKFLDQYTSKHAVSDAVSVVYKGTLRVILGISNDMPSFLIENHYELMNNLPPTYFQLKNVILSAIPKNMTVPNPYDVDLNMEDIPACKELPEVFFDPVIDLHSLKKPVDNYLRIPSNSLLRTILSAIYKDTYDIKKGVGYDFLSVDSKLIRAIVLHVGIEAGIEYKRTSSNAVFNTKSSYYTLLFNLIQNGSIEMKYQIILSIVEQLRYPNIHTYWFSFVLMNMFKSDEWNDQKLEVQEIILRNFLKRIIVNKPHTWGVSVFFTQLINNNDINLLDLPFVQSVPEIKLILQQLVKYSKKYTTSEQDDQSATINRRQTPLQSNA
Not1.154C-GFP (Not1 lacking the first 153 amino acids, C-terminally GFP-tagged): residues 154-2108 of P25655

Assay [1] deals with Not1.154C-GFP (Not1 lacking the first 153 amino acids, C-terminally GFP-tagged) (S. cerevisiae) (UniProt P25655). The experiment in a line: co-IP; GFP-Trap magnetic agarose beads capture the C-terminally GFP-tagged bait from yeast cell lysate (2 hr at 4°C; 50 mM Tris-HCl pH 7.5, 100 mM NaCl, 1.5 mM MgCl2, 5% glycerol, 0.1% NP-40; nine washes); C-terminally TAP-tagged prey detected by Western blot (anti-protA); strains with nontagged bait as background control. For orientation: Immunoblotting shows a protein as a band on a membrane.

Assay [2] deals with T1, full-length Btt1, yeast two-hybrid fusion (S. cerevisiae) (UniProt P40314).
T1 sequence: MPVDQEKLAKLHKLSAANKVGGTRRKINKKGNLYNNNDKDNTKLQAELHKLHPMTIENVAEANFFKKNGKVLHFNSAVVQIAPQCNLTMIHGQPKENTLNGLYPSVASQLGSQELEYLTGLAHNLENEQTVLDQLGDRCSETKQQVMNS
The assay is described as follows: two-hybrid; reporter strain PJ69-4A; bait fused to Gal4 DNA-binding domain, prey fused to Gal4 activation domain; growth on SC-Leu-Trp-His (HIS3) and SC-Leu-Trp-Ade (ADE2) plates, 3 days at 30°C.

For a further assay, the target named is T2, Btt1-GFP (S. cerevisiae) (UniProt P40314).
T2 sequence: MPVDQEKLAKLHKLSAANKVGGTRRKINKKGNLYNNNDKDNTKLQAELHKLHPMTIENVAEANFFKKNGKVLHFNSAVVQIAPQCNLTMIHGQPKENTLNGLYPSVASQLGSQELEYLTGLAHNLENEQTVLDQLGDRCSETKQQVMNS
The assay is described as follows: co-IP; GFP-Trap magnetic agarose beads capture the C-terminally GFP-tagged bait from yeast cell lysate (2 hr at 4°C; 50 mM Tris-HCl pH 7.5, 100 mM NaCl, 1.5 mM MgCl2, 5% glycerol, 0.1% NP-40; nine washes); C-terminally TAP-tagged prey detected by Western blot (anti-protA); strains with nontagged bait as background control.

Another assay deals with T3, Cal4-GFP (S. cerevisiae) (UniProt P47086).
T3 sequence: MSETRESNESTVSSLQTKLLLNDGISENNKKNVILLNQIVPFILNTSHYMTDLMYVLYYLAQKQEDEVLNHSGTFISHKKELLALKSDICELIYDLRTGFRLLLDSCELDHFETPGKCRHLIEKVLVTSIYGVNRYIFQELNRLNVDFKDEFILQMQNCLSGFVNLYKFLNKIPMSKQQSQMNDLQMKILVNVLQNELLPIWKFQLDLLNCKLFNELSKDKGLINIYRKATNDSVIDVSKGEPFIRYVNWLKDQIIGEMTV
The assay is described as above.

A further assay deals with T4, Egd2-GFP (S. cerevisiae) (UniProt P38879).
T4 sequence: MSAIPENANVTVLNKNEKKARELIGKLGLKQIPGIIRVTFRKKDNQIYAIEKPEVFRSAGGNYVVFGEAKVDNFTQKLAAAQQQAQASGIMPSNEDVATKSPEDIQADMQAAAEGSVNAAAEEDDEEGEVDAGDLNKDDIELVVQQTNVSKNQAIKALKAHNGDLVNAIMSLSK
The assay is described as above.

Assay [3] has as its target Not1-GFP (full-length Not1, C-terminally GFP-tagged) (S. cerevisiae) (UniProt P25655). The assay is described as above.
The target in assay [4] is T5, full-length Cal4, yeast two-hybrid fusion (S. cerevisiae) (UniProt P47086).
T5 sequence: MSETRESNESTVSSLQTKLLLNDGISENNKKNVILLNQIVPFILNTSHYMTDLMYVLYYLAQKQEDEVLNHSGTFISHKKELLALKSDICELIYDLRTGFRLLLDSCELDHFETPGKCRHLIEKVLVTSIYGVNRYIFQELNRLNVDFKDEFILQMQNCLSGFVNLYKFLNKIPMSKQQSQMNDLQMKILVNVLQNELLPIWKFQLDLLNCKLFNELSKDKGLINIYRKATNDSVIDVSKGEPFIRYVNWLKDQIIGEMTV
The experiment in a line: two-hybrid; reporter strain PJ69-4A; bait fused to Gal4 DNA-binding domain, prey fused to Gal4 activation domain; growth on SC-Leu-Trp-His (HIS3) and SC-Leu-Trp-Ade (ADE2) plates, 3 days at 30°C.

Assay [5] deals with full-length Not1, yeast two-hybrid fusion (S. cerevisiae) (UniProt P25655). The assay is described as above.
The target of assay [6] is T6, full-length Egd2, yeast two-hybrid fusion (S. cerevisiae) (UniProt P38879).
T6 sequence: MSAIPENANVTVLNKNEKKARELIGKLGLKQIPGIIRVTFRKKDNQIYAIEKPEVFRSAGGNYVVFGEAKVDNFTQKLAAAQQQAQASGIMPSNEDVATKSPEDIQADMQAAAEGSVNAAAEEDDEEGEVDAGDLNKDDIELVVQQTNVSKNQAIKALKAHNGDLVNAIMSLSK
The assay is described as above.

These are yes or no findings as the source states them, for the method shown. For part of these data: Binding seen in cells or lysates may run through a third protein. Some entries that bind do so weakly or less than the wild type. For part of these data: Where a sequence is shown, tags or fusion partners need not be part of it.

B1: Not5-TAP (protein, UniProt Q12514 1-560)
chain: MSQRKLQQDIDKLLKKVKEGIEDFDDIYEKFQSTDPSNSSHREKLESDLKREIKKLQKHRDQIKTWLSKEDVKDKQSVLMTNRRLIENGMERFKSVEKLMKTKQFSKEALTNPDIIKDPKELKKRDQVLFIHDCLDELQKQLEQYEAQENEEQTERHEFHIANLENILKKLQNNEMDPEPVEEFQDDIKYYVENNDDPDFIEYDTIYEDMGCEIQPSSSNNEAPKEGNNQTSLSSIRSSKKQERSPKKKAPQRDVSISDRATTPIAPGVESASQSISSTPTPVSTDTPLHTVKDDSIKFDNSTLGTPTTHVSMKKKESENDSEQQLNFPPDRTDEIRKTIQHDVETNAAFQNPLFNDELKYWLDSKRYLMQPLQEMSPKMVSQLESSLLNCPDSLDADSPCLYTKPLSLPHPTSIFFPNEPIRFVYPYDVPLNLTNNENDTDNKFGKDSKAKSKKDDDIYSRTSLARIFMKFDLDTLFFIFYHYQGSYEQFLAARELFKNRNWLFNKVDRCWYYKEIEKLPPGMGKSEEESWRYFDYKKSWLARRCGNDFVYNEEDFEKL
Turning to B1, the binding entry in assay [1] is on record as “binds”.

B2: Caf130 (amino acids 292–655), yeast two-hybrid fusion (domain or fragment, UniProt P53280 292-655)
chain: GTLEIPNVMEHSLLRHELLFKILNLTTVLTPLLELQFSTLCGLVDPLMQPTPNDKHIISIDFLFQLFLGLMSQSIKTSQEHNDHYDWKFYMCFNMQKIIDATMLRLNCFDFDILNSVNNTDNAVHWKTQLHRWLPHGLNTQDLELLYMIDILAVYTIYKLYEKIPIQLNPFLFSLISLWKNLSCVILLALEIDRIEEENGTYETPLMVRATIRGAAALRSVIATVLNGLVKNNDHDFKHESLNTFMSPYGRKLCHGALYADLRSHTASLLALGASIEDVTDLFADLQSGDRFDEDIRYMFDYECEDYDESFSESDHGGLDESVVNPTEKIASGSNNVFFRRRCNCIFNDDKLVAEDGANEAFGS
As to B2, in assay [2], the binding result was “binds”.

B3: Egd1-TAP (protein, UniProt Q02642 1-157)
chain: MPIDQEKLAKLQKLSANNKVGGTRRKLNKKAGSSAGANKDDTKLQSQLAKLHAVTIDNVAEANFFKDDGKVMHFNKVGVQVAAQHNTSVFYGLPQEKNLQDLFPGIISQLGPEAIQALSQLAAQMEKHEAKAPADAEKKDEAIPELVEGQTFDADVE
For the molecule B3, the binding entry is on record as “no binding” in the assay with Btt1-GFP (S. cerevisiae), “no binding” with Cal4-GFP (S. cerevisiae), “binds” in the assay with Egd2-GFP (S. cerevisiae) and “no binding” in [3].

B4: Caf130-TAP (protein, UniProt P53280 1-1122)
chain: MTKKKAATNYAERQNLASEDSSGDSVHFKDFIPLQELLKDKNYVPSVENLEKILYNETMFNDQKICSNLLLEALIITLFTTISGKSALRLIQTSSLKERKSWAQSFENNSSSYASIVLSWKDNDILLLKFLRFLLANKTAPLQINRYNLPEYKLPLSFLIVSKITIPSILLNETYNLLKDYLYSITGRIESLISCSSTFDKPALVVRKILKDYNRMIECRNFYFWYSFNAENRVNLTFSDNISLLMENDEGNAGSGLDDSRFDHQKQPREAIMGRTINDQEQIYSFELNQDGTLEIPNVMEHSLLRHELLFKILNLTTVLTPLLELQFSTLCGLVDPLMQPTPNDKHIISIDFLFQLFLGLMSQSIKTSQEHNDHYDWKFYMCFNMQKIIDATMLRLNCFDFDILNSVNNTDNAVHWKTQLHRWLPHGLNTQDLELLYMIDILAVYTIYKLYEKIPIQLNPFLFSLISLWKNLSCVILLALEIDRIEEENGTYETPLMVRATIRGAAALRSVIATVLNGLVKNNDHDFKHESLNTFMSPYGRKLCHGALYADLRSHTASLLALGASIEDVTDLFADLQSGDRFDEDIRYMFDYECEDYDESFSESDHGGLDESVVNPTEKIASGSNNVFFRRRCNCIFNDDKLVAEDGANEAFGSTNSENVEGAMHNNRNAVHNATTATSDHVVTSPNPLSVRSRSTFEFDYSGEDWRDVPRDFNMYYSPSYSFIHEPKLDVIFSLTLRGATEKLNKEESILLVRSVASCVRNEQDQMILADLESNFSASINGDVEGEGNTKMSKIDNEDLRRTTPDDIYEIWSEESAFERMLNVNHDVAWRLMDEMLMCTGYRRILIWFLTHLELKHSLIYYVFELIMGLRGKPFSGEASDQDKKDDMIYEILKKKQKNEDASGLPFSRQGPIVLSDIETKMLLQEFFMNAAIFLSSKNNEEENEDGEKISLYSLGLVRLICYMVQTLIANDKFFFTKSECTFELQTLLMTWIGILPEAKDLFFKIKTRLAMEEEDSADTMQHEGRKNSDIEKKLNAKPASELNLKLLNLFPSKPANKDDSSPINTLRSFIADYSFDTQVNPPGRRVVFYDGKILPLPKADKPIPLHEYITLAELDVGDSE
As to B4, the binding result in the assay with Btt1-GFP (S. cerevisiae) is “binds”; with Cal4-GFP (S. cerevisiae) it was “binds”; in [3], “binds”; in [1] it was “no binding”.

B5: full-length Btt1, yeast two-hybrid fusion (protein, UniProt P40314 1-149)
chain: MPVDQEKLAKLHKLSAANKVGGTRRKINKKGNLYNNNDKDNTKLQAELHKLHPMTIENVAEANFFKKNGKVLHFNSAVVQIAPQCNLTMIHGQPKENTLNGLYPSVASQLGSQELEYLTGLAHNLENEQTVLDQLGDRCSETKQQVMNS
Turning to B5, the binding result in assay [4] is “no binding”.

B6: Not2-TAP (protein, UniProt P06100 1-191)
chain: MEKFGLKALVPLLKLEDKELSSTYDHSMTLGADLSSMLYSLGIPRDSQDHRVLDTFQSPWAETSRSEVEPRFFTPESFTNIPGVLQSTVTPPCFNSIQNDQQRVALFQDETLFFLFYKHPGTVIQELTYLELRKRNWRYHKTLKAWLTKDPMMEPIVSADGLSERGSYVFFDPQRWEKCQRDFLLFYNAIM
Consider B6, for which the binding entry in [1] is on record as “binds”.

B7: Caf130 (amino acids 40–655), yeast two-hybrid fusion (domain or fragment, UniProt P53280 40-655)
chain: DKNYVPSVENLEKILYNETMFNDQKICSNLLLEALIITLFTTISGKSALRLIQTSSLKERKSWAQSFENNSSSYASIVLSWKDNDILLLKFLRFLLANKTAPLQINRYNLPEYKLPLSFLIVSKITIPSILLNETYNLLKDYLYSITGRIESLISCSSTFDKPALVVRKILKDYNRMIECRNFYFWYSFNAENRVNLTFSDNISLLMENDEGNAGSGLDDSRFDHQKQPREAIMGRTINDQEQIYSFELNQDGTLEIPNVMEHSLLRHELLFKILNLTTVLTPLLELQFSTLCGLVDPLMQPTPNDKHIISIDFLFQLFLGLMSQSIKTSQEHNDHYDWKFYMCFNMQKIIDATMLRLNCFDFDILNSVNNTDNAVHWKTQLHRWLPHGLNTQDLELLYMIDILAVYTIYKLYEKIPIQLNPFLFSLISLWKNLSCVILLALEIDRIEEENGTYETPLMVRATIRGAAALRSVIATVLNGLVKNNDHDFKHESLNTFMSPYGRKLCHGALYADLRSHTASLLALGASIEDVTDLFADLQSGDRFDEDIRYMFDYECEDYDESFSESDHGGLDESVVNPTEKIASGSNNVFFRRRCNCIFNDDKLVAEDGANEAFGS
Consider B7, for which the binding entry in assay [5] is “binds”.

B8: Caf130 (amino acids 686–938), yeast two-hybrid fusion (domain or fragment, UniProt P53280 686-938)
chain: SPNPLSVRSRSTFEFDYSGEDWRDVPRDFNMYYSPSYSFIHEPKLDVIFSLTLRGATEKLNKEESILLVRSVASCVRNEQDQMILADLESNFSASINGDVEGEGNTKMSKIDNEDLRRTTPDDIYEIWSEESAFERMLNVNHDVAWRLMDEMLMCTGYRRILIWFLTHLELKHSLIYYVFELIMGLRGKPFSGEASDQDKKDDMIYEILKKKQKNEDASGLPFSRQGPIVLSDIETKMLLQEFFMNAAIFLSS
Regarding B8, the binding result in assay [4] is given as “binds”.

B9: Btt1 (amino acids 54–101), yeast two-hybrid fusion (domain or fragment, UniProt P40314 54-101)
chain: MTIENVAEANFFKKNGKVLHFNSAVVQIAPQCNLTMIHGQPKENTLNG
Turning to B9, the binding entry in assay [6] is listed as “binds”.
